Data as given in PMC4336329 (PLoS ONE, 2015).
The campaign covered roughly 310,000 compounds. About 14,000 (4.5%) showed an effect of 50% or more. Effects have a minus sign here. The list shows a part of the results.

target: human ether-à-go-go-related gene (hERG) potassium channel (human, UniProt Q12809); test: primary screen, population patch clamp on CHO cells stably expressing hERG
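Further: peak tail current of the secondary pulse compared with the same well before compound.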

Sequence of human ether-à-go-go-related gene (hERG) potassium channel (Q12809 whole entry, looked up): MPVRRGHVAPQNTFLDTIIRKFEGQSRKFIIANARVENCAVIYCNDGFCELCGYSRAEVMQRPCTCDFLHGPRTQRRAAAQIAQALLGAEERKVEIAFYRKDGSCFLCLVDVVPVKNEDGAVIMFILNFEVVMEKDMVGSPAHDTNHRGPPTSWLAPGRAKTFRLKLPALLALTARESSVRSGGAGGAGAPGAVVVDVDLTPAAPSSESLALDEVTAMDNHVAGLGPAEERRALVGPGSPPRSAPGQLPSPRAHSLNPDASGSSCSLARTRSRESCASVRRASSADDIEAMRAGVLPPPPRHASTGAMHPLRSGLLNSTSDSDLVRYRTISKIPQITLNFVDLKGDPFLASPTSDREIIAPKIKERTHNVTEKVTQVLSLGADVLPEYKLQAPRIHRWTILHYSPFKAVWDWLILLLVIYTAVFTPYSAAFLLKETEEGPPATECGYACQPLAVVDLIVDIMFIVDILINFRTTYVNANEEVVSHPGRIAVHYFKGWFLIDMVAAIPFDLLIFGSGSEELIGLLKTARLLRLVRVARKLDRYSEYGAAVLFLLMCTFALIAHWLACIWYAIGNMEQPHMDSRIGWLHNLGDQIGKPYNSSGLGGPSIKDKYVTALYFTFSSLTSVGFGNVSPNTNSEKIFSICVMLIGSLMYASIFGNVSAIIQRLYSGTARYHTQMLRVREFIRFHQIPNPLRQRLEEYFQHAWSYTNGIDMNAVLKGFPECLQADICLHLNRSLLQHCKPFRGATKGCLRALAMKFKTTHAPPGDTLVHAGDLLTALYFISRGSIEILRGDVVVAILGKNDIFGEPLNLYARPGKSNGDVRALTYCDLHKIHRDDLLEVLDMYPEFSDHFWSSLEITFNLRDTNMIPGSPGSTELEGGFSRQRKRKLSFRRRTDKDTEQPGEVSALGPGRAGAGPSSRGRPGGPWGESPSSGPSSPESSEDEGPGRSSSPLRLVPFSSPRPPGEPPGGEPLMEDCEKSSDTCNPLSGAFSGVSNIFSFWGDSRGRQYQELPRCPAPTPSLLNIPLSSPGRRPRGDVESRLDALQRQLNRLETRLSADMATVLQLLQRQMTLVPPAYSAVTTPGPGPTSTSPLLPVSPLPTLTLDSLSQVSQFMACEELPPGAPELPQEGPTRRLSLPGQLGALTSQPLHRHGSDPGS

Compound | hERG current change (%, negative = inhibition) at 10uM
O=C(c1ccc(C(F)(F)F)cc1)N1CCC(=O)N(C(COCc2ccc(Cl)cc2)Cc2ccccc2)CC1 (centres unmarked) | -9.41%
CC(C)CCNC(=O)c1nnc(Cc2ccc(Cl)cc2)o1 | 11.4%
Cc1cccc(-n2ccc(=O)c(C(=O)O)n2)c1 | 24.7%
CC(=O)NCCn1c(SCC(=O)Nc2ccc(C)cc2)nc2ccccc2c1=O | 5.81%
Cc1ccc2[nH]c(=O)c(-c3nc4cc(C)ccn4c3NCc3ccco3)cc2c1 | -18%
Cn1cc(Cl)c(C(=O)NNC(=S)Nc2cccc(Cl)c2)n1 | 11.6%
CCCc1nc(SCC(=O)Nc2cc(C)on2)c2c(=O)n(C)c(=O)n(C)c2n1 | -2.26%
Cc1cc(C(=O)CSc2nnc(-c3cccs3)n2Cc2ccccc2)c(C)n1C | -46.9%
COc1ccc(F)cc1S(=O)(=O)NCCN1CCOCC1 | 14.8%
CC(C)(C)NC(=O)C(c1ccncc1)N(C(=O)CNC(=O)c1ccco1)c1ccc(F)cc1 (centres unmarked) | 7.74%
Oc1ccc(CN2CCc3ccccc3C2)c2cccnc12 | -48.8%
Cc1cc(C(=O)NCc2ccc(F)cc2)c2ccccc2n1 | 0.882%
Cc1ccc(NC(=O)Nc2ccc3c(c2)CCC3)c(C)c1 | 19.7%
Cc1ccc2c(Cl)c(C(=O)NC3CC3)sc2c1 | 8.68%
Oc1cccc2ccc(N3CCOCC3)nc12 | 11.8%
COC(=O)c1cc(S(=O)(=O)N2CCN(c3cc(C)ccc3C)CC2)c[nH]1 | -23.8%
CCCCc1nc(SCC(=O)N2CCOCC2)c2c(=O)n(C)c(=O)n(C)c2n1 | -18%
CCC(C)NC(=O)CSc1ncccc1C(=O)O (centres unmarked) | 12.3%
CCOc1[nH]n(-c2ccccc2)c(=O)c1C=Nc1ccc(Cl)cc1 | 6.53%
COc1cccc(/C=N/NC(=O)c2nnn(-c3nonc3N)c2CN(C)c2ccccc2)c1 | 8.32%
Cc1ccc(S(=O)(=O)N2CCCC(C(=O)N3CCC4(CC3)OCCO4)C2)cc1 (centres unmarked) | -28.5%
CC1CCN(C(=O)CCC(=O)Nc2nnc(C3CCCCC3)s2)CC1 | 6.21%

Compound | hERG current change (%, negative = inhibition) at 10uM
C=C1CCC(C)C(C)(CCC2=CCOC2=O)C/C=C\C=C/1C(=O)O (centres unmarked) | 7.06%
CCOc1ccc(C(=O)N/N=C/c2cccc3cccnc23)cc1 | -15.5%
CCOC(=O)c1c(NC(=O)CSc2nnnn2-c2ccc3c(c2)OCO3)sc(C)c1C | 14.3%
CCOCCCNC(=O)c1ccc2c(c1)N(Cc1ccccc1)C(=O)CS2=O (centres unmarked) | 11.5%
CCOC(=O)Cn1ccc(NC(=O)COc2ccc(F)cc2F)n1 | -2.52%
O=C(Nc1ccc(F)cc1)N1CCN(C/C=C/c2ccccc2)CC1 | -68.6%
O=C(COC(=O)Cc1ccccc1)NC(=O)NC1CCCCC1 | 15.5%
CCOC(=O)COc1ccc2c(c1)c(C(C)=O)c(C)n2-c1ccccc1 | 15.1%
COc1ccc(CCNC(=O)c2c(C)noc2C)cc1 | -0.943%
Br.COc1ccc(C2=Nn3c(C)nnc3SC2)cc1 | 0.091%
Cn1c[n+](C)cc1C(O)c1ccccc1.[I-] (centres unmarked) | 14.6%
COC(=O)CCCNC(=O)c1ccc2[nH]c(C)c(C)c2c1 | 5.23%
COc1ccc(/C=C2\SC(=S)N(CCC(=O)NCCc3ccc(O)cc3)C2=O)cc1 | 15.4%
CCc1ccc(/C=C2\SC(=S)N(CCCC(=O)Nc3ccc(C(=O)O)cc3)C2=O)cc1 | 28.8%
Cc1cccc(/C(N)=N/OC(=O)c2ccc3c(c2)OCO3)c1 | -5.58%
Cc1cc(C)nc(NC(=S)Nc2ccc(Br)cc2Cl)c1 | -23.8%
COC(=O)c1cccc(-n2c(=O)n(Cc3ccccc3)c(=O)c3[nH]cnc32)c1C | -4.15%
Cc1ccc(S(=O)(=O)N2CCN(C(=O)c3cc(=O)c4ccccc4o3)CC2)cc1 | -55%
C#CCOCCOCCOCCNc1nc(N2CCN(C(=O)[C@H](C(C)C)n3cc(CCO)nn3)CC2)nc(N2CCN(C(=O)[C@H](CCCC[NH3+])n3cc(CCCC)nn3)CC2)n1.[Cl-] | 1.61%
Cc1cc(C)c(NC(=O)c2sc3nc4c(cc3c2N)C(=O)CC(C)(C)C4)c(C)c1 | 3.58%
Cc1csc(NC(=O)C2CCCN(S(=O)(=O)c3ccc(Br)s3)C2)n1 (centres unmarked) | -12%
CC(C)c1ccccc1NC(=O)CN1C(=O)c2ccccc2C1=O | -0.723%

Compound | hERG current change (%, negative = inhibition) at 10uM
Oc1cc2c(cc1CN1CCN(c3ccccc3)CC1)OCO2 | 14.2%
COc1cccc2cc(-c3nnc(SCC(=O)Nc4ccc(NC(C)=O)cc4)n3C)oc12 | 25.4%
NC(=O)CCN(C1CCCCC1)S(=O)(=O)c1cccc2nsnc12 | 10.5%
CC1Cc2ccccc2N1S(=O)(=O)c1cccc(C(=O)NNC(=O)c2ccccc2F)c1 (centres unmarked) | -12.3%
COc1ccc(CC(=O)OCC(=O)N(C)C2CCS(=O)(=O)C2)cc1OC (centres unmarked) | 8.3%
CC(=O)N[C@@H](Cc1c[nH]c2ccccc12)C(=O)OCC(=O)Nc1ccc(S(=O)(=O)N(C)C)cc1 | 7.77%
CC(C)(C)NC(=O)c1cccc2c1C(=O)c1ccccc1-2 | 1.66%
CC1CCN(S(=O)(=O)c2cn(CC(=O)Nc3cccc(C#N)c3)cn2)CC1 | 12.7%
COc1ccc(NC(=O)C2CCOC(C)(C)C2)cc1 (centres unmarked) | 16.2%
CCOC(=O)c1c(NC(=O)CSc2nc3ccccc3o2)sc(C(C)=O)c1C | 12.4%
Cc1ccc(/C=C2/Sc3ccc(C(=O)N4CCC5(CC4)OCCO5)cc3NC2=O)cc1 | 16.1%
COc1ccc(NC(=O)C2CCC(CNc3c(N4CCCCC4)c(=O)c3=O)CC2)c(OC)c1 (centres unmarked) | 9.23%
COc1ccc(NS(=O)(=O)c2ccc(Oc3cccc(C(=O)O)c3)cc2)cc1 | 24.3%
Cc1cccc(NC(=O)c2cc(N3C(=O)CCC3=O)ccc2Cl)n1 | 4.41%
CC(=O)c1c(C)n([O-])c2ccc(C)cc2[n+]1=O | -1.91%
COc1ccc(S(=O)(=O)N2CCN(C)CC2)cc1NC(=O)c1ccccc1 | -38.8%
COc1cc(-c2nnc3sc(Cc4ccc(Cl)cc4)nn23)cc(OC)c1OC | 5.28%
COc1ccc(-c2nc3scc(-c4ccc(OC)c(OC)c4)c3c(=O)o2)cc1 | 5.49%
COC(=O)c1sccc1NC(=S)Nc1ccc(OC)cc1 | 12.6%
COc1cccc(CNC(=O)Cn2nc([N+](=O)[O-])c(Br)c2C)c1 | 1.3%
CCn1c(C)cc(/C=C2\NC(=O)N(Cc3ccccc3)C2=O)c1C | 12.9%
Cc1ccc(S(=O)(=O)N(CC(=O)Nc2cccc([N+](=O)[O-])c2)Cc2ccc(Cl)cc2)cc1 | 10.2%

Compound | hERG current change (%, negative = inhibition) at 10uM
CCOC(=O)N1CCN(c2ccc(F)cc2[N+](=O)[O-])CC1 | -10.5%
Cc1c(Cc2ccccc2)c(=O)oc2cc(OCC(=O)NCC(O)c3ccccc3)ccc12 (centres unmarked) | 28.7%
COC(C[C@@H]1O[C@@H]1[C@H](O)[C@@H](C)OCc1ccccc1)OC | -6.42%
O=C1CC(c2ccc(F)cc2)C(n2cncn2)C(O)=C1C1NCCc2ccccc21 (centres unmarked) | 10.6%
Cc1ccccc1NC(=O)CSCc1nc(N)nc(Nc2ccccc2C)n1 | -1.57%
CCS(=O)(=O)N1CCC(C(=O)NCCN2CCOCC2)CC1 | 3.01%
CC(=O)NC(CC(=O)OCC(=O)N1CCN(S(=O)(=O)c2ccc(C)cc2C)CC1)c1ccccc1 (centres unmarked) | -25.7%
COC(=O)C1=C(C)N(c2cccc(Cl)c2)C(=O)C1 | 9.01%
C=CCN(C(=O)c1csnn1)C(C(=O)NCc1ccc(F)cc1)c1sccc1C (centres unmarked) | -20.4%
Brc1cnc(N2CCCC2)nc1N1CCCCC1 | 3.49%
CN1C(=O)N(C)C(=O)C2(Sc3ccccc3C2=O)C1=O | -1.41%
Cc1ccc(CCNC(=O)CN(c2ccc(C)cc2)S(=O)(=O)c2c(C)noc2C)cc1 | 7.5%
CC(=O)Oc1ccc2c(c1)c(C(C)=O)c(C)n2C | 5.27%
Cl.c1ccc(N2CCCCC2)c(NC2=NCCC2)c1 | -15.5%
CCOC(=O)c1ccc[n+](C(C)C(=O)c2ccc(-c3ccccc3)cc2)c1.[Br-] (centres unmarked) | -21.3%
O=C(Cn1ncc(Cl)c(Cl)c1=O)NCC1CCCCC1 | -16.6%
O=C(/C=C\c1ccco1)Nc1ccc(N2CCN(C(=O)c3ccccc3)CC2)cc1 | -55.7%
COC(=O)Nc1ccc(S(=O)(=O)N2CCC(C(=O)N(C)C3CCCCC3)CC2)cc1 | 9.22%
CSCCNC(=O)c1ccc(OC2CCN(S(=O)(=O)N(C)C)CC2)cc1 | 7.53%
COc1cc(/C=C(/Sc2nnc(-c3ccc(F)cc3)o2)C(=O)O)ccc1OC(F)F | 15.6%
